# Among all 94,000 compounds or so, about 4,000 (4.3%) were called active. The inconclusive results got no clear call from the source; some entries with a clear call stand among them for comparison. The call rests on the fitted dose curve; in most records, active means well fitted inhibition curve with a large enough effect; inconclusive means small, poorly fitted or top-dose-only effect; inactive means no such curve, though single readings can be large or run the other way. Where the call is inconclusive, the potency comes from a doubtful curve fit.
# Test: Cytotoxic Profiling in NIH 3T3 Cell Line of Diverse Libraries Using Quantitative High-Throughput Screening; further: nearly all actives have a fitted effect of over 55% in size
# Settings: NIH 3T3 viability, CellTiter-Glo ATP luminescence, 48-72 h; series mostly up to 96.7 µM
# In short: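 NIH 3T3 cells at 400 cells/well received 23 nL of compound by pintool and were incubated 48 or 72 h at 37 °C. Viability was read as ATP-coupled CellTiter-Glo luminescence.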
# Potency means the concentration at half of the fitted maximal effect; tags describe the fitted curve by direction and shape.
row,Compound,Potency
1,COc1ccc(C(=O)NC2CCCN(c3ccc4nnc(C)n4n3)C2)cc1 (centres undefined),"inconclusive: 39.8 µM [inhibitor, partial curve, poor fit]"
2,O=C(NCCc1ccccc1)c1ccc2nnc(-c3ccc(OC(F)(F)F)cc3)n2c1,"inconclusive: 39.8 µM [inhibitor, partial curve, poor fit]"
3,O=[S+]([O-])(C1CC1)N1C2CCC1CN(c1ccc(C(F)(F)F)cc1)C2,"inconclusive: 28.2 µM [inhibitor, full curve]"
4,COc1ccccc1CCC(=O)N1CCC2(CC1)N(c1ccccc1)C(=O)CS2(=O)=O,inactive
5,Cc1csc(NC(=O)[C@@H]2C[C@H](c3cccc(C(F)(F)F)c3)N(Cc3cnn(C)c3)C2)n1,active: 28.2 µM
6,CCN1c2cc(C(=O)NCc3ccc(F)c(Cl)c3)ccc2C(=O)N2CCCCCC21 (centres undefined),"inconclusive: 50.1 µM [inhibitor, partial curve, poor fit]"
7,Fc1ccc(-c2cnc3n2C[C@H](CNCc2ccccn2)OC3)cc1,inactive
8,O=C(c1ccccc1)N1CCC(C(=O)N2CCC(c3nc4ncccc4[nH]3)CC2)CC1,inactive
9,Cc1ccccc1C(=O)N1CCC2(CC1)Cc1ccccc1NC2=O,"inconclusive: 44.7 µM [inhibitor, partial curve, poor fit]"
10,O=C(NC1CCN(Cc2cccc(-c3ccc(F)c(F)c3)c2)CC1)c1ccc(Cl)nc1,active: 25.1 µM
11,O=C(NC1CCCN(c2cc(-c3ccc(F)cc3)[nH]n2)C1)c1ccncc1 (centres undefined),inactive
12,O=C1COC[C@H]([C@H](O)c2ccc(NC(=O)c3ccnc(Cl)c3)cc2)N1,"inconclusive: 126 µM [inhibitor, partial curve, poor fit]"
13,O=C(NC1CCCC1)N1CCN(c2ccc3nnc(C4CC4)n3n2)CC1,"inconclusive: 31.6 µM [inhibitor, full curve]"
14,O=C(NC1CCN(c2ccc3nnc(-c4ccccc4)n3n2)C1)c1ccc(F)cc1 (centres undefined),inactive
15,Cn1cccc1CN1CCCC(C(=O)NCc2ccccc2)CCNC(=O)CC1 (centres undefined),"inconclusive: 70.8 µM [inhibitor, single point]"
16,CCCN(CC1CCOC1)S(=O)(=O)c1ccc2c(c1)CCCC2 (centres undefined),"inconclusive: 39.8 µM [inhibitor, partial curve]"
17,O=C1CN(Cc2ccc(Cl)cc2)CCN1c1ccc(Cl)nn1,"inconclusive: 50.1 µM [inhibitor, partial curve]"
18,O=C(NCc1cccc(Cl)c1)C1CCc2nnc(-c3cccc(C(F)(F)F)c3)n21 (centres undefined),"inconclusive: 50.1 µM [inhibitor, partial curve, poor fit]"
19,Cc1ccc(OCC(=O)N2CCC3(CC2)CC(N2CCOCC2)CCO3)cc1 (centres undefined),inactive
20,O=C(NC1CN(c2ccnc3ccnn23)C1)c1ccccc1,inactive
21,CCc1cccc(OCC(=O)c2ccc3c(c2)N(CCCC(=O)N2CCOCC2)C(=O)CO3)c1,"inconclusive: 70.8 µM [inhibitor, single point]"
22,CN(C)c1ccc(C(=O)NCC2CCN(c3cc(-c4ccc(Cl)cc4)[nH]n3)CC2)cc1,"inconclusive: 10 µM [inhibitor, full curve]"
23,O=C1NC(C(=O)Nc2ccc3c(c2)OCCO3)Cn2cccc21 (centres undefined),inactive

row,Compound,Potency
1,CCOC(=O)C1CCN(Cc2ccccc2OCC(O)CN(C)C2CCCCC2)CC1 (centres undefined),"inconclusive: 39.8 µM [inhibitor, partial curve, poor fit]"
2,N[C@H]1CN(C(=O)c2ccccc2Oc2ccccc2)C[C@@H]1C1CC1,"inconclusive: 89.1 µM [inhibitor, single point]"
3,O=C(C1CCCC1)N1CCOc2ccc(CN3CCc4ccccc4C3)cc2C1,"inconclusive: 44.7 µM [inhibitor, partial curve, poor fit]"
4,Cn1cc(CC(=O)N2CCCc3ncc(C(=O)NCc4cccs4)cc32)c2ccccc21,"inconclusive: 28.2 µM [inhibitor, full curve]"
5,COc1ccc(-c2ccnc3nc(CCC4CCCC4)nn23)cc1OC,"inconclusive: 2.82 µM [inhibitor, full curve, poor fit]"
6,CS(=O)(=O)N1CCCN(CC2CCCCC2)CCNC(=O)CC1c1ccccc1 (centres undefined),inactive
7,Cn1ncc2c(C(=O)NC3CCc4ccccc43)cc(-c3ccccc3C(F)(F)F)nc21 (centres undefined),"inconclusive: 12.6 µM [inhibitor, full curve]"
8,C[C@@H]1C(=O)O[C@H]2[C@H]1CC[C@@]1(C)Cc3sc(NC(=O)CCC(=O)O)nc3[C@@H](C)[C@H]21,inactive
9,Cc1ccc(NC(=O)Nc2cccc(-c3ccc(N4CCOCC4)nn3)c2)cc1F,inactive
10,COc1cccc(Cc2nc(C3CC(=O)N(Cc4ccccc4OC)C3)no2)c1 (centres undefined),"inconclusive: 50.1 µM [inhibitor, partial curve, poor fit]"
11,Cc1ccc(N2C(=S)N[C@H]3[C@@H](O)[C@H](O)C[C@@H](C(=O)N4CCCCC4)[C@H]32)cc1,inactive
12,Cc1noc(C)c1C(=O)N1Cc2ccccc2CC2(CCN(CC3CCNCC3)CC2)C1,inactive
13,COc1ccccc1-c1cc2c(nc1-c1ccccc1)nc(C(=O)NC1CCN(C)CC1)n2C,active: 20 µM
14,Cc1ccc(CNC(=O)CCC2CCN(S(=O)(=O)c3ccccc3)CC2)cc1,"inconclusive: 50.1 µM [inhibitor, partial curve, poor fit]"
15,Cc1cccc(-c2nocc2CCC(=O)O)c1,inactive
16,COc1ccc(-c2c(C(=O)NCc3ccccc3)nc3sccn23)cc1,"inconclusive: 44.7 µM [inhibitor, partial curve, poor fit]"
17,CCOc1ccccc1CN1CCC2(CCN(C(=O)NC3CCCC3)CC2)Oc2ccccc21,"inconclusive: 22.4 µM [inhibitor, full curve, poor fit]"
18,CO[C@H]1C(=O)N(C2CCN(S(=O)(=O)c3ccccc3)CC2)[C@H]1c1ccncc1,inactive
19,CCC(=O)N1CCC2(CC1)C(OC)C(=O)N2CC1CC1 (centres undefined),inactive
20,COc1ccc(NC(=O)Nc2ccc(C)n(CC(=O)NCC(C)C)c2=O)cc1,inactive
21,COc1ncccc1-c1cnc2[nH]cc(CC(=O)Nc3cc(C)nn3C)c2c1,"inconclusive: 35.5 µM [inhibitor, partial curve, poor fit]"
22,CCc1noc(-c2cn(C3CCN(C(=O)c4ccc(F)c(Cl)c4)C3)nn2)n1 (centres undefined),"inconclusive: 31.6 µM [inhibitor, full curve, poor fit]"
23,O=C(NCc1ccco1)C1CCCCC(=O)N1Cc1ccccc1 (centres undefined),inactive

row,Compound,Potency
1,c1ccc2[nH]c(N3CCN(Cc4cc5n(n4)CCCNC5)CC3)nc2c1,inactive
2,CC(=O)Nc1cccc(-c2ccc3ncn(Cc4ccccn4)c(=O)c3n2)c1,inactive
3,COCC(=O)N1CCC2(CC1)OC(=O)N(Cc1ccc(O)cc1)C2(C)c1ccccc1 (centres undefined),"inconclusive: 112 µM [inhibitor, single point]"
4,COc1ccc(C(=O)Nc2ccc3c(c2)CN(Cc2cccc(OC)c2OC)C(=O)CO3)cc1,"inconclusive: 44.7 µM [inhibitor, partial curve, poor fit]"
5,CCC(=O)N1CCc2sc(C(=O)NCc3ccc(C)cc3)cc2C1,"inconclusive: 50.1 µM [inhibitor, single point]"
6,Cc1nn2c(c1-c1ccccc1OCc1ccccc1)N(Cc1cccnc1)CCC2,"inconclusive: 56.2 µM [inhibitor, partial curve, poor fit]"
7,CCCN(Cc1ccncc1)C(=O)c1cnc(-c2ccccn2)[nH]c1=O,"inconclusive: 10 µM [inhibitor, full curve, poor fit]"
8,COc1cccc(-c2cccc(CN3CCCC3C(=O)N3CCN(C)CC3)c2)c1 (centres undefined),inactive
9,CNC(=O)c1cc(C)nc2onc(C3CCN(C(=O)NC(C)C)CC3)c12,inactive
10,O=C1Cc2c(-c3ccccc3Cl)n[nH]c2CN1Cc1ccccc1F,"inconclusive: 50.1 µM [inhibitor, partial curve, poor fit]"
11,CN(C)c1ccc(C(=O)N2CCC3(CC2)NC(=O)N(Cc2ccccc2)C3=O)cc1,inactive
12,COc1ccccc1C(O)c1nc(Nc2ccc(Cl)cc2)n[nH]1 (centres undefined),"inconclusive: 112 µM [inhibitor, single point]"
13,COCCN1C[C@H]2COc3ccccc3[C@H]2N(C(=O)CC(C)(C)C)CCC1=O,inactive
14,CN1C(=O)CCC2(CNC(=O)c3cccc4nccnc34)CCCC=C12 (centres undefined),"inconclusive: 50.1 µM [inhibitor, partial curve, poor fit]"
15,Cc1ccc(CCCN2CCCC(COc3ccccc3C(=O)NC(C)C)C2)o1 (centres undefined),"inconclusive: 44.7 µM [inhibitor, partial curve, poor fit]"
16,CCOCCn1c(=O)[nH]c2cc(C(=O)NCc3ccc(F)c(F)c3)ccc21,inactive
17,O=C(c1cc(-c2ccc(O)cc2)n[nH]1)N1CCCC(CCc2ccc(F)cc2)C1 (centres undefined),"inconclusive: 22.4 µM [inhibitor, full curve, poor fit]"
18,CCCOc1cccc(-c2nc(C(=O)NCC)cs2)c1,"inconclusive: 39.8 µM [inhibitor, partial curve]"
19,O=C(O)CCn1ncc2cc(OC3CCN(C(=O)CC4CC4)CC3)ccc21,"inconclusive: 112 µM [inhibitor, single point]"
20,CCCNC(=O)N1CCC(c2noc(COc3ccc(F)cc3)n2)C1 (centres undefined),inactive
21,COc1ccc(-c2cc(C(=O)NC3CCc4ccccc43)c3cnn(C)c3n2)cc1 (centres undefined),inactive
22,COc1ccccc1-c1cccc(CN2CCCC(C(=O)NCc3cccc(Cl)c3)C2)c1 (centres undefined),active: 31.6 µM
23,O=S(=O)(N[C@@H]1CCOC[C@H]1OCc1ccccn1)c1ccc(F)cc1,inactive
